# Measurements: PubChem BioAssay (EPA / NIEHS)
# For some of these results: The hits were mostly taken out for another list; the other results follow. Records with an inconclusive call do not appear. The list shows a part of the results, in another mix than the full data. Some compounds were tested as several samples or in several runs, with calls that do not always agree. Activity calls are given as the source filed them. Rule for the calls, unless noted: active = hit-call score of the fitted dose curve at least 0.9, where 1 is the maximum; inconclusive = response in the unintended direction; inactive = score below 0.9.
# What was measured:
# [1] = TOX21_p53_BLA_p2_viability: Viability Assessment in the Tox21 HCT-116 p53 Agonism Beta-lactamase Assay, Phase 2 (AID 2283591);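 note: compound exposure lasted 16 h at 37 °C; actives lower the ATP signal meaning cytotoxicity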
# In short: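 HCT-116 p53-bla cells (4000/well) rested 5 h at 37C, then received compounds in DMSO (217-fold dilution) for 16 h at 37C, 5% CO2. After the CCF4 read, CellTiter-Glo was added; ATP luminescence was read after 30 min at room temperature.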
# [2] = read-out: Keratin 19 (KRT19), KRT19 (gene 3880); assay: LTEA_HepaRG_KRT19: Life Technologies and Expression Analysis (LTEA) Assay for Keratin 19 (KRT19) using HepaRG (AID 2283512; active = hit-call score of the fitted dose curve at least 0.9, where 1 is the maximum; inactive = score below 0.9); details: actives raise or lower the signal; mRNA level, 48 h
# In short: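 Readout is qRT-PCR of KRT19 mRNA, normalized to ACTB, GAPDH and POLR2A, from HepaRG cells treated 48 h with eight-point half-log dilutions topping at 100 uM. Activity in either direction is scored relative to 0.5% DMSO vehicle.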
# [3] = target: Cellular tumor antigen p53 (Homo sapiens) (UniProt P04637); assay: TOX21_p53_BLA_p5_ratio: Tox21 HCT-116 p53 Agonism Beta-lactamase Assay, Ratio, Phase 5 (AID 2283599)
# In short: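 HCT-116 cells carrying a p53-inducible beta-lactamase reporter were seeded at 4000 cells/well and dosed after 5 h with compound in DMSO (217-fold dilution). After 16 h at 37C, CCF4-AM substrate was added for 2 h, and the 460/530 nm emission ratio was scored as gain-of-signal versus DMSO.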
# [4] = read-out: matrix metalloproteinase-3 (MMP3), MMP3 (gene 4314); assay: LTEA_HepaRG_MMP3: Life Technologies and Expression Analysis (LTEA) Assay for matrix metalloproteinase-3 (MMP3) using HepaRG (AID 2283519; active = hit-call score of the fitted dose curve at least 0.9, where 1 is the maximum; inactive = score below 0.9); details: actives raise or lower the signal; mRNA level, 48 h
# In short: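 Differentiated human HepaRG cells, plated 48 h on collagen I, were exposed in duplicate for 48 h in serum-free induction medium to eight half-log concentrations up to 100 uM in 0.5% DMSO. MMP3 mRNA was quantified by TaqMan qRT-PCR, normalised to ACTB, GAPDH and POLR2A.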
# [5] = target: Cellular tumor antigen p53 (Homo sapiens) (UniProt P04637); assay: TOX21_p53_BLA_p3_ratio: Tox21 HCT-116 p53 Agonism Beta-lactamase Assay, Ratio, Phase 3 (AID 2283596)
# In short: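 HCT116 p53-bla cells (4000/well) given compound in DMSO (217-fold dilution) after 5 h, incubated 16 h at 37C. CCF4-AM substrate 2 h at room temperature; 460/530 nm emission ratio, gain fitted against DMSO.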
# [6] = read-out: Paternally Expressed 10 (PEG10), PEG10 (gene 23089); assay: LTEA_HepaRG_PEG10: Life Technologies and Expression Analysis (LTEA) Assay for Paternally Expressed 10 (PEG10) using HepaRG (AID 2283520; active = hit-call score of the fitted dose curve at least 0.9, where 1 is the maximum; inactive = score below 0.9); details: actives raise or lower the signal; mRNA level, 48 h
# In short: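 Differentiated HepaRG cells exposed 48 h in serum-free induction medium to eight half-log concentrations topping at 100 uM, 0.5% DMSO, in duplicate. PEG10 mRNA quantified by TaqMan qRT-PCR, normalized to ACTB, GAPDH and POLR2A; bidirectional fit versus DMSO.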
# [7] = ATG_XTT_Cytotoxicity: Cytotoxicity Assessment in the Attagene TRANS-FACTORIAL HepG2 Assay (AID 2283584)
# In short: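 24 h chemical exposure of reporter-transfected HepG2; XTT signal loss vs DMSO indicates cytotoxicity.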
# [8] = read-out: Interleukin 6 Receptor (IL6R), IL6R (gene 3570); assay: LTEA_HepaRG_IL6R: Life Technologies and Expression Analysis (LTEA) Assay for Interleukin 6 Receptor (IL6R) using HepaRG (AID 2283510; active = hit-call score of the fitted dose curve at least 0.9, where 1 is the maximum; inactive = score below 0.9;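 note: TaqMan qRT-PCR signal normalized to ACTB GAPDH and POLR2A housekeeping genes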); details: actives raise or lower the signal; mRNA level, 48 h
# In short: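 Differentiated HepaRG cells, plated 48 h, then exposed in duplicate for 48 h in serum-free induction medium to 8 half-log concentrations (top 100 uM, 0.5% DMSO). IL6R mRNA measured by TaqMan qRT-PCR, normalized to ACTB/GAPDH/POLR2A; bidirectional fit vs DMSO.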
# [9] = read-out: Nuclear factor NF-kappa-B p105 subunit (Homo sapiens) (UniProt P19838); assay: LTEA_HepaRG_NFKB1: Life Technologies and Expression Analysis (LTEA) Assay for Nuclear Factor Kappa B Subunit 1 (NFKB1) using HepaRG (AID 2283521; active = hit-call score of the fitted dose curve at least 0.9, where 1 is the maximum; inactive = score below 0.9;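 note: TaqMan qRT-PCR transcript normalised to ACTB GAPDH and POLR2A housekeeping genes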); details: actives raise or lower the signal; mRNA level, 48 h
# In short: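 HepaRG, 48 h exposure; 8-pt half-log series from 100 uM in 0.5% DMSO; duplicates. Readout: NFKB1 mRNA by qRT-PCR (Fluidigm arrays), housekeeping-normalized. Gain/loss fit vs DMSO baseline.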
# [10] = read-out: Nuclear factor erythroid 2-related factor 2 (Homo sapiens) (UniProt Q16236); assay: LTEA_HepaRG_NFE2L2: Life Technologies and Expression Analysis (LTEA) Assay for Nuclear factor erythroid 2-related factor 2 (NFE2L2) Transcription Factor using HepaRG (AID 2283527; active = hit-call score of the fitted dose curve at least 0.9, where 1 is the maximum; inactive = score below 0.9;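 note: TaqMan qRT-PCR transcript level normalised to ACTB GAPDH and POLR2A housekeeping genes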); details: actives raise or lower the signal; mRNA level, 48 h
# In short: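 Differentiated human HepaRG cells in serum-free induction medium were exposed for 48 h to eight concentrations (top 100 uM, half-log dilutions, 0.5% DMSO), in duplicate. NFE2L2 mRNA was quantified by TaqMan qRT-PCR, normalized to ACTB, GAPDH and POLR2A, with bidirectional fitting versus DMSO.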
# [11] = read-out: Glutathione S-transferase M3 (GSTM3), GSTM3 (gene 2947); assay: LTEA_HepaRG_GSTM3: Life Technologies and Expression Analysis (LTEA) Assay for Glutathione S-transferase M3 (GSTM3) using HepaRG (AID 2283501; active = hit-call score of the fitted dose curve at least 0.9, where 1 is the maximum; inactive = score below 0.9); details: actives raise or lower the signal; mRNA level, 48 h
# In short: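 Expression of GSTM3 is determined by qRT-PCR in human liver HepaRG cells treated 48 h with an 8-point half-log range from 100 uM in 0.5% DMSO.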
# [12] = read-out: TIMP1, TIMP1 (gene 7076); assay: LTEA_HepaRG_TIMP1: Life Technologies and Expression Analysis (LTEA) Assay for TIMP1 using HepaRG (AID 2283534; active = hit-call score of the fitted dose curve at least 0.9, where 1 is the maximum; inactive = score below 0.9;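 note: TaqMan qRT-PCR signal normalized to ACTB GAPDH and POLR2A housekeeping genes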); details: actives raise or lower the signal; mRNA level, 48 h
# In short: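 TIMP1 induction or repression in HepaRG cells after 48 h chemical exposure (eight concentrations, highest 100 uM), assessed by normalized qRT-PCR with bidirectional fitting to DMSO controls.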
# [13] = Tanguay_ZF_120hpf_MORT_legacy: (Legacy) Oregon State University Tanguay Lab 120 Hour Post-fertilization zebrafish Assay for Mortality (AID 2283633)
# In short: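 Single dechorionated Tropical 5D embryos were held with test chemical (0.64% DMSO final) from 6 to 120 hpf at 28C under foil. Deaths at 24 or 120 hpf were recorded as binary calls, analysed for increase over DMSO controls.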
# [14] = Tanguay_ZF_120hpf_YSE_legacy: (Legacy) Oregon State University Tanguay Lab 120 Hour Post-fertilization zebrafish Assay for Yolk Sac Edema (AID 2283634);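 note: actives raise the incidence of yolk sac edema above the DMSO baseline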
# In short: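 Single dechorionated embryos were held in sealed plates at 28C with test chemical (0.64% DMSO final) from 6 hpf until 120 hpf. Edema of the yolk sac was then recorded as a binary endpoint; non-mortality endpoints were skipped for dead embryos.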
# [15] = Tanguay_ZF_120hpf_PE_legacy: (Legacy) Oregon State University Tanguay Lab 120 Hour Post-fertilization zebrafish Assay for Pericardial Edema (AID 2283640)
# UniProt P04637, sequence (P04637 whole entry, looked up): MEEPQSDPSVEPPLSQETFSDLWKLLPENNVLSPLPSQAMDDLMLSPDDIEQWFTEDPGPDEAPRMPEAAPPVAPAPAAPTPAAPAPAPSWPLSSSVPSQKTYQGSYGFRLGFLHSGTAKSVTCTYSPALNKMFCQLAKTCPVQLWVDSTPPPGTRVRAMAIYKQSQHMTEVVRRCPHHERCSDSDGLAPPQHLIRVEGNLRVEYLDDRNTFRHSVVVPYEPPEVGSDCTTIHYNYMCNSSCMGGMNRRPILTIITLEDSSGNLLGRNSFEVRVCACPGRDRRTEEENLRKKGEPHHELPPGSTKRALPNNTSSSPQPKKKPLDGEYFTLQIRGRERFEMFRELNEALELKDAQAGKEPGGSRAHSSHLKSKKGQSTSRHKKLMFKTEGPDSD
# UniProt Q16236, sequence (Q16236 whole entry, looked up): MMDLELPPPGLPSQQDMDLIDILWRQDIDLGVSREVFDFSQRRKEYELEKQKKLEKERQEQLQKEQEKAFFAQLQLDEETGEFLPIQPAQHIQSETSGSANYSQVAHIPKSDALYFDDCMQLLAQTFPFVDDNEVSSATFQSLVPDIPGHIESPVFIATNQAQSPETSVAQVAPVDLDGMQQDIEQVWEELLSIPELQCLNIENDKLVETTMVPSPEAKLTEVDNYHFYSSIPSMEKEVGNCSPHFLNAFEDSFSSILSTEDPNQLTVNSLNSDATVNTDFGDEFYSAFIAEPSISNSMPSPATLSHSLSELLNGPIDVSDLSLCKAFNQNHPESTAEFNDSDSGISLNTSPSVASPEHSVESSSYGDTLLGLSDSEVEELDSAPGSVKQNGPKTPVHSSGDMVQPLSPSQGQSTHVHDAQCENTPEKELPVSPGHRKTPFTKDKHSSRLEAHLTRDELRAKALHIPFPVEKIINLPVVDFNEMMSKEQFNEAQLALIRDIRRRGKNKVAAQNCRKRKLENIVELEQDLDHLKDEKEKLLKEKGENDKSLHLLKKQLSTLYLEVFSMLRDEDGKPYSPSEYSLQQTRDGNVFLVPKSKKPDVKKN
# UniProt P19838, sequence (P19838 whole entry, looked up): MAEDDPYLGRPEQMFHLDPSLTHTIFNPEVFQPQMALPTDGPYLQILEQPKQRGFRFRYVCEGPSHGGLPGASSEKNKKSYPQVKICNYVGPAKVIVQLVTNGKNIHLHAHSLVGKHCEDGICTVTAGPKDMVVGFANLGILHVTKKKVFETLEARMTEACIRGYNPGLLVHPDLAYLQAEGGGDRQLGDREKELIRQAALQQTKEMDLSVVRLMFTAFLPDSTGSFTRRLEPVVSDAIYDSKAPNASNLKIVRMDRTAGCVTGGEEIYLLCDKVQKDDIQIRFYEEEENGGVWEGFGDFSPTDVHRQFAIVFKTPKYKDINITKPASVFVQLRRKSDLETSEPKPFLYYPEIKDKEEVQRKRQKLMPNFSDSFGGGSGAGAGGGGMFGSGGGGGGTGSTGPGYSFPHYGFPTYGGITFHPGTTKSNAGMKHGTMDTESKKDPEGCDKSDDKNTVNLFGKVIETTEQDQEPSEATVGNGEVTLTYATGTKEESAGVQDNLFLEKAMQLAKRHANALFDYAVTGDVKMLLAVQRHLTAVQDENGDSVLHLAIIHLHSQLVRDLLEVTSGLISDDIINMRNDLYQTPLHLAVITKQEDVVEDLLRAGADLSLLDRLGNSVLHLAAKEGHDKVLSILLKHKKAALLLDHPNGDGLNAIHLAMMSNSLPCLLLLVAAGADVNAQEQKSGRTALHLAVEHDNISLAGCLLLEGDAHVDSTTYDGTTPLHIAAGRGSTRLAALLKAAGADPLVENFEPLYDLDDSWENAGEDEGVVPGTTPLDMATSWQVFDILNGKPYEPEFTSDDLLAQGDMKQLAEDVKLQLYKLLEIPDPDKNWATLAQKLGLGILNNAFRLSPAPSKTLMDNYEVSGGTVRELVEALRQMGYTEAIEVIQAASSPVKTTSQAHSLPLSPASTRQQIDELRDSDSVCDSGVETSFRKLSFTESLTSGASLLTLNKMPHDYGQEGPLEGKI
smiles,measurement,setting,value
C[C@]12C/C(=C/O)C(=O)C[C@@H]1CC[C@@H]1[C@@H]2CC[C@@]2(C)[C@H]1CC[C@]2(C)O,AC50,[1],active: 62.2 µM
CC(C)C1(C)N=C(c2ncccc2C(=O)O)NC1=O (configuration not stated),outcome,[2],inactive
O=c1ssc(Cl)c1Cl,outcome,[3],inactive
CC#Cc1cc(C)nc(Nc2ccccc2)n1,AC50,[4],active: 9.92 µM
COc1ccc(C(O)(c2cncnc2)C2CC2)cc1 (configuration not stated),outcome,[3],inactive
O=C(Cl)/C=C/C(=O)Cl,outcome,[5],inactive
CO/C=C(/C(=O)OC)c1ccccc1COc1cccc(C(F)(F)F)n1,AC50,[6],active: 2.86 µM
COP(=S)(OC)Oc1ccc(Sc2ccc(OP(=S)(OC)OC)cc2)cc1,outcome,[7],inactive
CCCSC(=O)Cl,outcome,[3],inactive
COC(=O)N(C(=O)N1CO[C@@]2(C(=O)OC)Cc3cc(Cl)ccc3C2=N1)c1ccc(OC(F)(F)F)cc1,AC50,[8],active: 26.7 µM
Brc1ccc(Br)cc1,outcome,[5],inactive
CNC(=O)Oc1cccc2c1OC(C)(C)O2,outcome,[9],inactive
same,outcome,[10],inactive
ClC(Cl)(Cl)c1ccccc1,outcome,[10],inactive
COC1=CC=C2[C@H]3Cc4ccc(OC)c5c4[C@@]2(CCN3C)[C@H]1O5,outcome,[5],inactive
c1ccc(C2CO2)cc1 (configuration not stated),outcome,[11],inactive
same,outcome,[12],inactive
C=CC#N,outcome,[3],inactive
CCc1nn(C)c(C(=O)NCc2ccc(C(C)(C)C)cc2)c1Cl,outcome,[3],inactive
COC(=O)Nc1nc2ccccc2[nH]1,outcome,[13],inactive
CCC(=O)C(CC(C)N(C)C)(c1ccccc1)c1ccccc1 (configuration not stated),AC50,[14],active: 33.4 µM
CCCCN(CCCC)SN(C)C(=O)Oc1cccc2c1OC(C)(C)C2,outcome,[15],inactive
